Measured values reported in the supplement of paper PMC3334620.
Over roughly 33,000 sequences, “E-score (-0.5 to 0.5)” has its median near -0.043; the highest 2% begin near 0.37. This is one part of the list.

target: T1, Upc2 (UniProt Q12151); assay: PBM E-score (8-mer binding enrichment) (E-score (-0.5 to 0.5)); higher = stronger / more preferred TF binding; most listed sequences are background and not binding sites; conditions: protein concentration: 200 nM; construct: GST-full length
T1 sequence: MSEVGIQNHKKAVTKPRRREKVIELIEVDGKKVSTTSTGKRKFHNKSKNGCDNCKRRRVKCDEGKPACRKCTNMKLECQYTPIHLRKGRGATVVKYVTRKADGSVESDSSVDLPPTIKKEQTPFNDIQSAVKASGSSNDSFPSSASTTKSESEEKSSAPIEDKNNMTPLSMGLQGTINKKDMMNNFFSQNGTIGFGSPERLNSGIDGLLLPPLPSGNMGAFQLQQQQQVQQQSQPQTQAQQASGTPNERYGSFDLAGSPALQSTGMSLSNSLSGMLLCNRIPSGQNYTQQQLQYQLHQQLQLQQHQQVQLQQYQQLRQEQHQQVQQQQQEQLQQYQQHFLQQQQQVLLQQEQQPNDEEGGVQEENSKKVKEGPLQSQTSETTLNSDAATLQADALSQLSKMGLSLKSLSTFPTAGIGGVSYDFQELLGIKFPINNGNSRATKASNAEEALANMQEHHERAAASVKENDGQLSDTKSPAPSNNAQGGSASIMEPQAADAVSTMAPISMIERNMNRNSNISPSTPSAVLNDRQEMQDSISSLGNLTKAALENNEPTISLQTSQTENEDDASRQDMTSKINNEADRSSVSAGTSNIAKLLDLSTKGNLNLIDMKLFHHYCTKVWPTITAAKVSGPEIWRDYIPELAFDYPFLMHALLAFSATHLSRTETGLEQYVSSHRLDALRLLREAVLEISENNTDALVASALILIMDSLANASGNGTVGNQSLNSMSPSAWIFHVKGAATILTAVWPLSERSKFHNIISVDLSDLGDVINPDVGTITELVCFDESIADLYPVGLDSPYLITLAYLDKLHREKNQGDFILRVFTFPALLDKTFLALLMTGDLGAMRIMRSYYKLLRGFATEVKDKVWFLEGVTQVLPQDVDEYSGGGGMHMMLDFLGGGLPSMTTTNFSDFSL
How it was run: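 PURExpress in vitro transcription/translation supplied GST-tagged yeast transcription factors, either full-length or DNA-binding domain. Applied at about 100-200 nM to universal all-10-mer Agilent arrays double-stranded by primer extension, the bound protein was detected with fluorescent anti-GST. E-scores, modified Wilcoxon-Mann-Whitney statistics, were given by the Universal PBM Analysis Suite to ungapped eight-base words pooled with their reverse complements after masliner normalisation.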

Sequence | PBM E-score
TGCCGAAA | -0.00788
CCGCTATA | 0.0813
AATTCGAT | 0.0574
GTACTCAA | -0.0704
ACGTGGGA | 0.00481
AGGCTATC | 0.11
AGAGGTTA | -0.143
AGTATAAG | 0.261
CGACAGTC | 0.043
CGAGAGTA | 0.152
AGCAGCTG | -0.131
AAACCGTT | 0.124
GTAGGCGA | -0.0376
GTAGCCAA | -0.0241
CCAGAGAG | -0.321
CGCTGGCC | -0.107
AGGATGGC | -0.162
ACACTCCG | 0.079
CAGAGTGA | -0.0649
AACTCGAT | 0.0481
AAGACCAC | -0.255
CTCATTGA | -0.141

Sequence | PBM E-score
CAGTGTGC | -0.155
ATAAGATA | 0.146
GGGGTTTA | -0.156
ACCCTACT | -0.252
AAGGGGCA | -0.104
ATTATGGA | -0.02
AAATGGGT | -0.0142
CTGATCTC | -0.0129
CAAATCTC | -0.0575
GCACAACC | -0.205
CAGTTGCC | -0.125
CAAGCTGA | -0.241
CTTCCTTA | 0.0293
CCCTGTGC | -0.0603
GATGTTGA | -0.0812
CCGGGGGA | -0.376
AGACAGGA | -0.105
GAGGCATC | -0.047
ATCGCTGC | -0.164
ATGCAATG | -0.16
GAAACGCC | 0.0519
AGTTTCGG | 0.0223

Sequence | PBM E-score
TGCAGCAA | 0.121
CTGGGATC | -0.194
GCCCGGAA | 0.0482
ACGTCCTG | -0.0564
CAGAATAG | 0.00039
CATTATAC | 0.266
CTCATTCA | -0.196
GCGTTGGA | -0.276
ATGAGCCC | -0.12
CCAGCCTC | -0.128
CTTAAGAA | 0.0691
GAGCCTGC | -0.051
AAACGGAC | 0.337
TAAAGCCA | 0.0825
CCAAGTCC | -0.0936
TCATGTCA | -0.251
AAGGCGCC | -0.0908
CCAGTGAG | -0.322
CCTGTCCA | -0.214
AATCGTCC | -0.0549
CTAACATC | -0.132
ACAAGGCT | -0.212

Sequence | PBM E-score
CCACCGCG | 0.129
TACGTCGA | 0.243
TACTCCGA | -0.127
GCGGCGAC | -0.106
ACAACCAC | -0.127
CCACCGGA | 0.0727
ATCATTGC | -0.208
ATGGATTA | -0.36
ACATGGCT | -0.0164
CCTCATAA | -0.134
AGTTGGTG | -0.0572
AATTGGGT | -0.00338
GAGAGATC | -0.0846
TCGATGCA | -0.311
AAATCGAC | 0.0518
AAACGCTC | 0.28
CGTAGCAC | 0.268
ATCGCCCA | -0.2
CTGACGTC | -0.0271
AGACAAGC | -0.146
